PubChem BioAssay AID1508624 (National Center for Advancing Translational Sciences (NCATS), 2021)
Screen size: about 48,000 compounds; about 120 (0.25%) were called active. About 4% were inconclusive and are not listed. The call rests on the fitted dose curve; in most records, active means well fitted activation curve with a large enough effect; inconclusive means small, poorly fitted or top-dose-only effect, or another doubt; inactive means no such curve, though single readings can be large or run the other way. The list shows a part of the results.

Assay: Primary qHTS for Identification of Small Molecule Activators of Huntingtin-Antisense Promoter Activity; further: nearly all actives have a fitted effect of over 55% in size
Conditions: HEK293 HTT-AS promoter firefly luciferase reporter, 24 h; series mostly up to 57.5 µM; activity change, positive = activation: at the top concentration
How it was run: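 HEK293 Fluc reporter, 2,500 cells/well, 24 h pre-culture; cpds up to 57.5 uM final, 24 h 37 degrees C; Dual-Glo, 10 min RT; normalized vehicle = 0%, zero RLU = -100%.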

Row | SMILES | activity change, positive = activation
1 | CCn1c(C(=O)N2CCC(C(=O)NCCCOC)CC2)cc2sccc21 | inactive: -5.11%
2 | Cc1cc(C)c(/C=C/c2onc(C)c2S(=O)(=O)N2CCC(C(=O)Nc3ccc(Cl)cc3C)CC2)c(C)c1 | inactive: 26.2%
3 | O=C(COCc1cc(-c2cccs2)on1)NCc1cccc(Cl)c1 | inactive: -8.96%
4 | CC(C(O)c1ccc(O)cc1)N1CCC(Cc2ccccc2)CC1 (configuration not stated) | inactive: -7.94%
5 | Cc1cn(S(=O)(=O)c2ccc(F)c(Cl)c2)cn1 | inactive: -6.1%
6 | COc1ccc(NC(=O)CSc2nc3c(c(=O)[nH]2)CCC3)cc1 | inactive: -4.25%
7 | CCC1CCc2nc3sc(C(=O)Nc4ccc(F)c(F)c4)c(N)c3cc2C1 (configuration not stated) | inactive: 14.2%
8 | CCOC(=O)c1c(C)c(C(=O)NCc2ccc(Cl)cc2)c(C)n1CC | inactive: -24.8%
9 | CC(C)c1ccccc1Oc1c(C(F)(F)F)oc2c(CN3CCN(C)CC3)c(O)ccc2c1=O | inactive: 0%
10 | Cn1c(-c2ccc(S(=O)(=O)N3CCCC3)cc2)csc1=Nc1ccc(Cl)c(Cl)c1 | inactive: -74%
11 | CCOc1ccccc1Nc1sc(C(=O)c2ccc(Cl)cc2)c(N)c1C(=O)NCCc1ccccc1 | inactive: 0.748%
12 | O=C(Cn1c(=O)n(CCc2ccccc2)c(=O)c2c3c(sc21)CCCC3)Nc1ccc(F)c(F)c1 | inactive: -7.54%
13 | Brc1ccc(CN2CCc3nc(N4CCN(c5ncccn5)CC4)ncc3C2)cc1 | inactive: -28.9%
14 | CCCc1nnc(NC(=O)Cc2coc3ccc(C)cc23)s1 | inactive: -10.3%
15 | Cc1ccccc1NC(=O)CSc1nc2ccccc2c2nc(CCn3c(C)nc4ccccc43)nn12 | inactive: -4.94%
16 | COc1ccc(NCc2cc3ccc(OC)cc3n(CC(=O)Nc3cccc(OC)c3)c2=O)cc1 | inactive: 34.1%
17 | Cc1ccc(CNC(=O)c2cn(C)c3ccc(S(=O)(=O)N4CCOCC4)cc3c2=O)cc1 | inactive: 15.4% [at 11.5 µM, percent change from vehicle, -100% = no light]
18 | CCOc1ccc(-c2nc(CNC(=O)Nc3ccccc3)c(C)o2)cc1 | inactive: 2.47%
19 | COc1ccccc1N1CCN(C(=O)c2cc3c(=O)oc4ccc(C)cc4c3s2)CC1 | inactive: -15.7%
20 | COc1ccccc1CNC(=O)CN1C(=O)c2cccnc2Oc2ccccc21 | inactive: 19.5%
21 | Cc1ccc(-c2noc(CSc3nnc(C)n3-c3ccc(C)cc3)n2)cc1 | inactive: -16.4%
22 | COc1ccc(OCCSc2nc3ccccc3n2CC(=O)N2CCOCC2)cc1 | inactive: -11.5%
23 | COc1ccc(NC(=O)CCCc2nnc3n(CCC(C)C)c(=O)c4sccc4n23)cc1Cl | inactive: -21.1%
24 | COc1ccc(/C=C/c2onc(C)c2S(=O)(=O)N2CCC(C(=O)N3CCCCC3)CC2)cc1 | inactive: -31%

Row | SMILES | activity change, positive = activation
25 | CCOc1ccc(CNC(=O)C2CCN(C(=O)c3sccc3-n3cccc3)CC2)cc1 | inactive: -17.1%
26 | Cc1ccc(-n2c(SCCC(C)C)nc3sc4c(c3c2=O)CC(C)(C)OC4)cc1 | inactive: -6.18%
27 | COc1ccc(-c2cc(C(C)=O)c(C)n2CCC(=O)NC2CCCCC2)cc1 | inactive: -17.4%
28 | CCOC(=O)c1c(C)[nH]c(C)c1S(=O)(=O)NCC(=O)N1CCN(c2cc(Cl)ccc2C)CC1 | inactive: -26.4%
29 | CC(Oc1ccccc1)C(=O)N1CCN(Cc2cc(=O)n3nc(-c4ccccc4Cl)sc3n2)CC1 (configuration not stated) | inactive: -13.3%
30 | O=C(CCSCc1ccccc1Cl)N1CCN(c2ccc(F)cc2)CC1 | inactive: -16%
31 | CCc1ccc(C(=O)c2cn(CC(=O)Nc3ccc4c(c3)OCCO4)c3ccc(C)cc3c2=O)cc1 | inactive: -19.9%
32 | CC(=O)c1ccc(NC(=O)COc2ccccc2-c2nc(-c3ccccc3)no2)cc1 | inactive: -6.93%
33 | COCc1cc(C)nc2sc3c(c12)NC(c1ccccc1C(=O)O)N(c1ccc(OC)cc1)C3=O (configuration not stated) | inactive: 2.08%
34 | O=c1c2c3c(sc2n(Cc2cc(=O)n4ccccc4n2)c(=O)n1-c1ccccc1)CCC3 | inactive: -0.0154%
35 | Cc1ccc(C)c(NC(=O)c2nnn(CC(=O)Nc3cccc(C)c3C)c2N)c1 | inactive: -14.3%
36 | O=c1cc(CN2CCN(S(=O)(=O)c3ccccc3)CC2)nc2sc(-c3ccccc3Cl)nn12 | inactive: -6.22%
37 | Cc1ccc(NC(=O)C(Cc2ccccc2)NS(=O)(=O)c2cccs2)cc1Cl (configuration not stated) | inactive: -0.313%
38 | CCCN(C(=O)c1sc2nc3n(c(=O)c2c1C)CCCC3)c1ccccc1C | inactive: -31.5%
39 | CC(C)N(CC[C@H](c1ccccc1)c1cc(CO)ccc1O)C(C)C | inactive: -8.04%
40 | Cc1ccc2c(c1)CC(C)N2S(=O)(=O)c1nnc(NC(=O)C(C)C)s1 (configuration not stated) | inactive: -23.3%
41 | Cc1cccc(NC(=O)C2CCN(S(=O)(=O)c3ccc4c(c3)CCCC(=O)N4)CC2)c1 | inactive: -10.9%
42 | CCCNC(=O)C1CCC(Cn2c(=O)c3sccc3n(CC(=O)Nc3ccccc3C)c2=O)CC1 (configuration not stated) | inactive: -13%
43 | CC(NC(=O)c1ccc2nc(Cc3ccccc3)oc2c1)c1ccccc1 (configuration not stated) | inactive: -3.59%
44 | Cc1cc(=O)n(CC(=O)Nc2cccc([N+](=O)[O-])c2)c(-n2nc(C)cc2C)n1 | inactive: -8.48%
45 | CCc1noc(-c2ccc(N(C)Cc3ccc(OC)cc3)c([N+](=O)[O-])c2)n1 | inactive: -35.1%
46 | CCOc1ccc(CCNC(=O)c2sc3ncccc3c2-n2c(C)ccc2C)cc1 | inactive: -26.6%
47 | CCc1ccc(Nc2cc(C(=O)NCCCN(C)c3ccccc3)c3ccccc3n2)cc1 | inactive: 2.46%
